# Experimental data published in the supplement of paper PMC8728848.
# Some of the results follow.
# B1: Epa7 (Candida glabrata), Q6DTM6_CANGB (protein)
# chain: MGSSHHHHHHSSGLVPRGSHMKDDYSSFLSNNNLGWTDPTEFPLGCSPNVTTPKNGLSMELYSYDLRKNGSYPCWDAAYLDPNYPRTGYKSHRLLAKVDGVTGNINFYYHATKGCTPEIDHLPASYNYPKPLTMTNFTMLLYGYFKPKVTGYHTFTISADDLLFVNFGAGNAFDCCKRESSADDFGNYQAYAVWGSQTAKDDLTVHLDAGLYYPIRIFFNNREYDAELSLTLKTESDSNPVIDFSDYFYSFDDTKDGCPGLVSYDTS
# How the values were obtained:
# Experiment in all cases: glycan array binding signal (z-score within array); higher = stronger binding
# Conditions in all cases: glycan notation: IUPAC condensed, linker removed
# [1] = target: Fuc(a1-3)GlcNAc
# How it was run: (§1)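 The Consortium for Functional Glycomics database supplied 3228 glycan arrays, of which those lacking an available protein sequence were dropped. The binding signal, a within-array Z-score, was averaged across arrays of the same protein sequence and across linkers. Negative scores can be read as non-binding.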
# [2] = target: Fuc(a1-3)[Gal(b1-4)]Glc6S
# How it was run: as §1
# [3] = target: Fuc(a1-3)[Gal(b1-4)]GlcNAc
# How it was run: as §1
# [4] = target: Fuc(a1-3)[Gal(b1-4)]GlcNAc(b1-2)Man
# How it was run: as §1
# [5] = target: Fuc(a1-3)[Gal(b1-4)]GlcNAc(b1-2)Man(a1-3)[Fuc(a1-3)[Gal(b1-4)]GlcNAc(b1-2)Man(a1-6)]Man(b1-4)GlcNAc(b1-4)GlcNAc
# How it was run: as §1
# [6] = target: Fuc(a1-3)[Gal(b1-4)]GlcNAc(b1-2)Man(a1-3)[Fuc(a1-3)[Gal(b1-4)]GlcNAc(b1-2)Man(a1-6)]Man(b1-4)GlcNAc(b1-4)[Fuc(a1-6)]GlcNAc
# How it was run: as §1
# [7] = target: Fuc(a1-3)[Gal(b1-4)]GlcNAc(b1-3)Gal(b1-3)[Fuc(a1-4)]GlcNAc
# How it was run: as §1
# [8] = target: Fuc(a1-3)[Gal(b1-4)]GlcNAc(b1-3)Gal(b1-4)[Fuc(a1-3)]GlcNAc
# How it was run: as §1
# [9] = target: Fuc(a1-3)[Gal(b1-4)]GlcNAc(b1-3)Gal(b1-4)[Fuc(a1-3)]GlcNAc(b1-3)Gal(b1-4)[Fuc(a1-3)]GlcNAc
# How it was run: as §1
# [10] = target: Fuc(a1-3)[Gal(b1-4)]GlcNAc(b1-3)GalNAc
# How it was run: as §1
# [11] = target: Fuc(a1-3)[Gal(b1-4)]GlcNAc(b1-4)Gal(b1-4)[Fuc(a1-3)]GlcNAc
# How it was run: as §1
# [12] = target: Fuc(a1-3)[Gal(b1-4)]GlcNAc(b1-4)Gal(b1-4)[Fuc(a1-3)]GlcNAc(b1-4)Gal(b1-4)[Fuc(a1-3)]GlcNAc
# How it was run: as §1
# [13] = target: Fuc(a1-3)[Gal(b1-4)]GlcNAc(b1-6)GalNAc
# How it was run: as §1
# [14] = target: Fuc(a1-3)[Gal(b1-4)]GlcNAc(b1-6)[Gal(b1-3)GlcNAc(b1-3)]Gal(b1-4)Glc
# How it was run: as §1
# [15] = target: Fuc(a1-3)[Gal(b1-4)]GlcNAc6S
# How it was run: as §1
# [16] = target: Fuc(a1-3)[Gal3S(b1-4)]Glc
# How it was run: as §1
# [17] = target: Fuc(a1-3)[Gal3S(b1-4)]Glc6S
# How it was run: as §1
# [18] = target: Fuc(a1-3)[Gal3S(b1-4)]GlcNAc
# How it was run: as §1
# [19] = target: Fuc(a1-3)[Gal3S(b1-4)]GlcNAc6S
# How it was run: as §1
# [20] = target: Fuc(a1-3)[GalNAc(b1-4)]Gal(b1-4)GlcNAc
# How it was run: as §1
# [21] = target: Fuc(a1-3)[GalNAc(b1-4)]GlcNAc
# How it was run: as §1
# [22] = target: Fuc(a1-3)[GalNAc(b1-4)]GlcNAc6S
# How it was run: as §1
# [23] = target: Fuc(a1-4)GlcNAc
# How it was run: as §1
# [24] = target: Fuc(b1-3)GlcNAc
# How it was run: as §1
# [25] = target: Gal(a1-2)Gal
# How it was run: as §1
# [26] = target: Gal(a1-3)Gal
# How it was run: as §1
# [27] = target: Gal(a1-3)Gal(b1-3)Glc
# How it was run: as §1
# [28] = target: Gal(a1-3)Gal(b1-3)GlcNAc
# How it was run: as §1
# [29] = target: Gal(a1-3)Gal(b1-3)GlcNAc(b1-2)Man
# How it was run: as §1
# [30] = target: Gal(a1-3)Gal(b1-3)GlcNAc(b1-2)Man(a1-3)[Gal(a1-3)Gal(b1-3)GlcNAc(b1-2)Man(a1-6)]Man(b1-4)GlcNAc(b1-4)GlcNAc
# How it was run: as §1
# [31] = target: Gal(a1-3)Gal(b1-3)GlcNAc(b1-3)GalNAc
# How it was run: as §1
# [32] = target: Gal(a1-3)Gal(b1-3)GlcNAc(b1-6)GalNAc
# How it was run: as §1
# [33] = target: Gal(a1-3)Gal(b1-3)[Fuc(a1-4)]GlcNAc(b1-2)Man(a1-3)[Gal(a1-3)Gal(b1-3)[Fuc(a1-4)]GlcNAc(b1-2)Man(a1-6)]Man(b1-4)GlcNAc(b1-4)GlcNAc
# How it was run: as §1
# [34] = target: Gal(a1-3)Gal(b1-4)Glc
# How it was run: as §1
# [35] = target: Gal(a1-3)Gal(b1-4)GlcNAc
# How it was run: as §1
# [36] = target: Gal(a1-3)Gal(b1-4)GlcNAc(b1-2)Man
# How it was run: as §1
# [37] = target: Gal(a1-3)Gal(b1-4)GlcNAc(b1-2)Man(a1-3)[Gal(a1-3)Gal(b1-4)GlcNAc(b1-2)Man(a1-6)]Man(b1-4)GlcNAc(b1-4)GlcNAc
# How it was run: as §1
# [38] = target: Gal(a1-3)Gal(b1-4)GlcNAc(b1-3)GalNAc
# How it was run: as §1
binder,measurement,setting,value
B1,glycan array binding signal (z-score),[1],-0.248
same,glycan array binding signal (z-score),[2],-0.25
same,glycan array binding signal (z-score),[3],-0.253
same,glycan array binding signal (z-score),[4],-0.208
same,glycan array binding signal (z-score),[5],-0.232
same,glycan array binding signal (z-score),[6],-0.153
same,glycan array binding signal (z-score),[7],-0.256
same,glycan array binding signal (z-score),[8],-0.224
same,glycan array binding signal (z-score),[9],-0.127
same,glycan array binding signal (z-score),[10],-0.19
same,glycan array binding signal (z-score),[11],-0.271
same,glycan array binding signal (z-score),[12],-0.286
same,glycan array binding signal (z-score),[13],-0.112
same,glycan array binding signal (z-score),[14],-0.164
same,glycan array binding signal (z-score),[15],-0.233
same,glycan array binding signal (z-score),[16],-0.254
same,glycan array binding signal (z-score),[17],-0.279
same,glycan array binding signal (z-score),[18],-0.269
same,glycan array binding signal (z-score),[19],-0.237
same,glycan array binding signal (z-score),[20],-0.279
same,glycan array binding signal (z-score),[21],-0.213
same,glycan array binding signal (z-score),[22],-0.234
same,glycan array binding signal (z-score),[23],-0.253
same,glycan array binding signal (z-score),[24],-0.25
same,glycan array binding signal (z-score),[25],-0.251
same,glycan array binding signal (z-score),[26],-0.23
same,glycan array binding signal (z-score),[27],-0.283
same,glycan array binding signal (z-score),[28],-0.245
same,glycan array binding signal (z-score),[29],-0.198
same,glycan array binding signal (z-score),[30],-0.142
same,glycan array binding signal (z-score),[31],-0.216
same,glycan array binding signal (z-score),[32],-0.21
same,glycan array binding signal (z-score),[33],-0.215
same,glycan array binding signal (z-score),[34],-0.218
same,glycan array binding signal (z-score),[35],-0.169
same,glycan array binding signal (z-score),[36],-0.204
same,glycan array binding signal (z-score),[37],-0.185
same,glycan array binding signal (z-score),[38],-0.22
